{"source": "the supplement of paper PMC8728848", "assay_in_all_cases": "glycan array binding signal (z-score within array); higher = stronger binding", "conditions_in_all_cases": "glycan notation: IUPAC condensed, linker removed", "key": {"[1]": {"target": "Neu5Ac(a2-6)Gal(b1-4)GlcNAc(b1-2)Man(a1-3)[Man(a1-6)]Man(b1-4)GlcNAc(b1-4)GlcNAc", "how_it_was_run": "(§1)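 Arrays were curated from the Consortium for Functional Glycomics database, 3228 in total, and kept only where the protein sequence was available. Binding is expressed as a within-array Z-score. This score was averaged across arrays of the same protein sequence at different concentrations or buffers and across linkers, and negative values can be read as non-binding.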"}, "[2]": {"target": "Neu5Ac(a2-6)Gal(b1-4)GlcNAc(b1-2)Man(a1-3)[Neu5Ac(a2-3)Gal(b1-4)GlcNAc(b1-2)Man(a1-6)]Man(b1-4)GlcNAc(b1-4)GlcNAc", "how_it_was_run": "as §1"}, "[3]": {"target": "Neu5Ac(a2-6)Gal(b1-4)GlcNAc(b1-2)Man(a1-3)[Neu5Ac(a2-6)Gal(b1-4)GlcNAc(b1-2)Man(a1-6)]Man(b1-4)GlcNAc(b1-4)GlcNAc", "how_it_was_run": "as §1"}, "[4]": {"target": "Neu5Ac(a2-6)Gal(b1-4)GlcNAc(b1-2)Man(a1-3)[Neu5Ac(a2-6)Gal(b1-4)GlcNAc(b1-2)Man(a1-6)]Man(b1-4)GlcNAc(b1-4)[Fuc(a1-6)]GlcNAc", "how_it_was_run": "as §1"}, "[5]": {"target": "Neu5Ac(a2-6)Gal(b1-4)GlcNAc(b1-2)Man(a1-6)Man(b1-4)GlcNAc(b1-4)GlcNAc", "how_it_was_run": "as §1"}, "[6]": {"target": "Neu5Ac(a2-6)Gal(b1-4)GlcNAc(b1-2)Man(a1-6)[Gal(b1-4)GlcNAc(b1-2)Man(a1-3)]Man(b1-4)GlcNAc(b1-4)GlcNAc", "how_it_was_run": "as §1"}, "[7]": {"target": "Neu5Ac(a2-6)Gal(b1-4)GlcNAc(b1-2)Man(a1-6)[GlcNAc(b1-2)Man(a1-3)]Man(b1-4)GlcNAc(b1-4)GlcNAc", "how_it_was_run": "as §1"}, "[8]": {"target": "Neu5Ac(a2-6)Gal(b1-4)GlcNAc(b1-2)Man(a1-6)[Man(a1-3)]Man(b1-4)GlcNAc(b1-4)GlcNAc", "how_it_was_run": "as §1"}, "[9]": {"target": "Neu5Ac(a2-6)Gal(b1-4)GlcNAc(b1-2)[Neu5Ac(a2-6)Gal(b1-4)GlcNAc(b1-4)]Man(a1-3)[GlcNAc(b1-4)][Neu5Ac(a2-6)Gal(b1-4)GlcNAc(b1-2)[Neu5Ac(a2-6)Gal(b1-4)GlcNAc(b1-6)]Man(a1-6)]Man(b1-4)GlcNAc(b1-4)GlcNAc", "how_it_was_run": "as §1"}, "[10]": {"target": "Neu5Ac(a2-6)Gal(b1-4)GlcNAc(b1-2)[Neu5Ac(a2-6)Gal(b1-4)GlcNAc(b1-4)]Man(a1-3)[GlcNAc(b1-4)][Neu5Ac(a2-6)Gal(b1-4)GlcNAc(b1-4)Man(a1-6)]Man(b1-4)GlcNAc(b1-4)GlcNAc", "how_it_was_run": "as §1"}, "[11]": {"target": "Neu5Ac(a2-6)Gal(b1-4)GlcNAc(b1-2)[Neu5Ac(a2-6)Gal(b1-4)GlcNAc(b1-6)]Man(a1-6)[Neu5Ac(a2-6)Gal(b1-4)GlcNAc(b1-2)Man(a1-3)][GlcNAc(b1-4)]Man(b1-4)GlcNAc(b1-4)GlcNAc", "how_it_was_run": "as §1"}, "[12]": {"target": "Neu5Ac(a2-6)Gal(b1-4)GlcNAc(b1-3)Gal(b1-3)GlcNAc", "how_it_was_run": "as §1"}, "[13]": {"target": "Neu5Ac(a2-6)Gal(b1-4)GlcNAc(b1-3)Gal(b1-4)GlcNAc", "how_it_was_run": "as §1"}, "[14]": {"target": "Neu5Ac(a2-6)Gal(b1-4)GlcNAc(b1-3)Gal(b1-4)GlcNAc(b1-2)Man(a1-3)[Neu5Ac(a2-6)Gal(b1-4)GlcNAc(b1-3)Gal(b1-4)GlcNAc(b1-2)Man(a1-6)]GalNAc", "how_it_was_run": "as §1"}, "[15]": {"target": "Neu5Ac(a2-6)Gal(b1-4)GlcNAc(b1-3)Gal(b1-4)GlcNAc(b1-3)Gal(b1-4)GlcNAc", "how_it_was_run": "as §1"}, "[16]": {"target": "Neu5Ac(a2-6)Gal(b1-4)GlcNAc(b1-3)Gal(b1-4)GlcNAc(b1-3)Gal(b1-4)GlcNAc(b1-2)Man(a1-3)[Neu5Ac(a2-6)Gal(b1-4)GlcNAc(b1-3)Gal(b1-4)GlcNAc(b1-3)Gal(b1-4)GlcNAc(b1-2)Man(a1-6)]GalNAc", "how_it_was_run": "as §1"}, "[17]": {"target": "Neu5Ac(a2-6)Gal(b1-4)GlcNAc(b1-3)Gal(b1-4)GlcNAc(b1-3)GalNAc", "how_it_was_run": "as §1"}, "[18]": {"target": "Neu5Ac(a2-6)Gal(b1-4)GlcNAc(b1-3)Gal(b1-4)GlcNAc(b1-3)[Neu5Ac(a2-6)Gal(b1-4)GlcNAc(b1-3)Gal(b1-4)GlcNAc(b1-6)]GalNAc", "how_it_was_run": "as §1"}, "[19]": {"target": "Neu5Ac(a2-6)Gal(b1-4)GlcNAc(b1-3)Gal(b1-4)GlcNAc(b1-6)[Gal(b1-3)]GalNAc", "how_it_was_run": "as §1"}, "[20]": {"target": "Neu5Ac(a2-6)Gal(b1-4)GlcNAc(b1-3)Gal(b1-4)[Fuc(a1-3)]GlcNAc(b1-3)Gal(b1-4)[Fuc(a1-3)]GlcNAc", "how_it_was_run": "as §1"}, "[21]": {"target": "Neu5Ac(a2-6)Gal(b1-4)GlcNAc(b1-3)GalNAc", "how_it_was_run": "as §1"}, "[22]": {"target": "Neu5Ac(a2-6)Gal(b1-4)GlcNAc(b1-3)[Neu5Ac(a2-6)Gal(b1-4)GlcNAc(b1-6)]GalNAc", "how_it_was_run": "as §1"}, "[23]": {"target": "Neu5Ac(a2-6)Gal(b1-4)GlcNAc(b1-6)GalNAc", "how_it_was_run": "as §1"}, "[24]": {"target": "Neu5Ac(a2-6)Gal(b1-4)GlcNAc(b1-6)[Gal(b1-3)GlcNAc(b1-3)]Gal(b1-4)Glc", "how_it_was_run": "as §1"}, "[25]": {"target": "Neu5Ac(a2-6)Gal(b1-4)GlcNAc(b1-6)[Gal(b1-3)]GalNAc", "how_it_was_run": "as §1"}, "[26]": {"target": "Neu5Ac(a2-6)Gal(b1-4)GlcNAc6S", "how_it_was_run": "as §1"}, "[27]": {"target": "Neu5Ac(a2-6)GalNAc", "how_it_was_run": "as §1"}, "[28]": {"target": "Neu5Ac(a2-6)GalNAc(b1-4)GlcNAc", "how_it_was_run": "as §1"}, "[29]": {"target": "Neu5Ac(a2-6)GalNAc(b1-4)GlcNAc6S", "how_it_was_run": "as §1"}, "[30]": {"target": "Neu5Ac(a2-6)GlcNAc(b1-4)GlcNAc", "how_it_was_run": "as §1"}, "[31]": {"target": "Neu5Ac(a2-6)GlcNAc(b1-4)GlcNAc(b1-4)GlcNAc", "how_it_was_run": "as §1"}}, "note": "The list shows a part of the results.", "data": [{"binder": "Epa3to1 (Candida glabrata) (protein) MGSSHHHHHHSSGLVPRGSHMKRELSSQNPFGYPIGCSPQDVAIIPGLTMELYSYPIVSGTPPNCYDASYVDPEYPRTGYLKRKMVGKSTGVTGNLNYKYSVEKACMVKYGNLPAGYNYNEPLTVSNFTMILYGYFKAQTTGLHTFFVNADDLLYINFGAGNAFDCCKREDSKTKLGEYVAYDIWHVDSSKNKVSLFLEKDLYYPIRMFFNNREYDSSLDLSFSVNGATDQISDFSGYLYSVPDQPDTCPAHIGYDTTCR", "values": [{"measurement": "glycan array binding signal (z-score)", "setting": "[1]", "result": 0.106}, {"measurement": "glycan array binding signal (z-score)", "setting": "[2]", "result": -0.253}, {"measurement": "glycan array binding signal (z-score)", "setting": "[3]", "result": -0.511}, {"measurement": "glycan array binding signal (z-score)", "setting": "[4]", "result": -0.358}, {"measurement": "glycan array binding signal (z-score)", "setting": "[5]", "result": 1.03}, {"measurement": "glycan array binding signal (z-score)", "setting": "[6]", "result": -0.585}, {"measurement": "glycan array binding signal (z-score)", "setting": "[7]", "result": 0.092}, {"measurement": "glycan array binding signal (z-score)", "setting": "[8]", "result": 0.233}, {"measurement": "glycan array binding signal (z-score)", "setting": "[9]", "result": -0.023}, {"measurement": "glycan array binding signal (z-score)", "setting": "[10]", "result": 0.754}, {"measurement": "glycan array binding signal (z-score)", "setting": "[11]", "result": -0.191}, {"measurement": "glycan array binding signal (z-score)", "setting": "[12]", "result": 4.57}, {"measurement": "glycan array binding signal (z-score)", "setting": "[13]", "result": -0.202}, {"measurement": "glycan array binding signal (z-score)", "setting": "[14]", "result": 0.011}, {"measurement": "glycan array binding signal (z-score)", "setting": "[15]", "result": 0.714}, {"measurement": "glycan array binding signal (z-score)", "setting": "[16]", "result": 0.07}, {"measurement": "glycan array binding signal (z-score)", "setting": "[17]", "result": 0.028}, {"measurement": "glycan array binding signal (z-score)", "setting": "[18]", "result": -0.125}, {"measurement": "glycan array binding signal (z-score)", "setting": "[19]", "result": -0.293}, {"measurement": "glycan array binding signal (z-score)", "setting": "[20]", "result": -0.035}, {"measurement": "glycan array binding signal (z-score)", "setting": "[21]", "result": -0.228}, {"measurement": "glycan array binding signal (z-score)", "setting": "[22]", "result": -0.078}, {"measurement": "glycan array binding signal (z-score)", "setting": "[23]", "result": 0.097}, {"measurement": "glycan array binding signal (z-score)", "setting": "[24]", "result": -0.036}, {"measurement": "glycan array binding signal (z-score)", "setting": "[25]", "result": 0.449}, {"measurement": "glycan array binding signal (z-score)", "setting": "[26]", "result": -0.26}, {"measurement": "glycan array binding signal (z-score)", "setting": "[27]", "result": -0.459}, {"measurement": "glycan array binding signal (z-score)", "setting": "[28]", "result": -0.995}, {"measurement": "glycan array binding signal (z-score)", "setting": "[29]", "result": -0.365}, {"measurement": "glycan array binding signal (z-score)", "setting": "[30]", "result": -0.094}, {"measurement": "glycan array binding signal (z-score)", "setting": "[31]", "result": -1.23}]}]}
